Experimental data taken from the RNAGym collection of RNA variant scans (doi:10.1073/pnas.2313332121).
Variants at the floor of the assay are shown more often than the library holds them.

B1: TPR 5TU (parent)
chain: GGAUCUUCUCGAUCUAACAAAAAAGACAAAUCUGCCACAAAGCUUGAGAGCAUCUUCGGAUGCAGAGGCGGCAGCCUUCGGUGGCGCGAUAGCGCCAACGUUCUCAACUAUGACACGCAAAACGCGUGCUCCGUUGAAUGGAGUUUAUCAUG

Variants of: B1
Test: polymerase ribozyme fitness, log enrichment relative to wild type (log ratio); higher = more active; in vitro selection for triplet polymerase activity
Outline: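 Each subunit of a heterodimeric triplet polymerase ribozyme was mutagenized into a library by PCR, transcribed, and subjected to one round of in vitro selection, run in triplicate. Libraries were annealed with a biotinylated primer, the partner subunit and triplets, incubated frozen at −7 °C, and extended constructs were gel-excised, captured on streptavidin beads and recovered by RT-PCR. Input and output libraries were sequenced on Illumina, keeping genotypes with ≥10 input reads and ≥1 read per output. Fitness is log base 2 of genotype enrichment divided by wild-type enrichment, from inverse-variance-weighted replicate averages.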

Variant	polymerase ribozyme fitness (log ratio)
A29U A91G C96G A107U U151C	≤ -4.2
A29U C32A A66C C87U C105U	≤ -4.2
A29U C32A U90G G124C	≤ -4.2
A29U C35U C69U G83U C105A C125U U144C	≤ -4.2
A29U C35U U55A A64U G81C G92A U101G A110U	≤ -4.2
A29U C36U G62A U109G	≤ -4.2
A29U C38A G88C C114G	≤ -4.2
A29U C51G A52C C93U A98U A138G	≤ -4.2
A29U C51U G94A C99G	≤ -4.2
A29U C57G A98G A107U G140A	≤ -4.2
A29U C76U G88U C95A U145C	≤ -4.2
A29U C85A C95U A119C	≤ -4.2
A29U C85G A106U	≤ -4.2
A29U C93A A119U G128A	≤ -4.2
A29U C96A G124U C131U	≤ -4.2
A29U C96U	-3.19
A29U G46C A52C G92C A122U	≤ -4.2
A29U G46U C96G U146C U148G U151C	≤ -4.2
A29U G46U U61G A66U C85A U148G	≤ -4.2
A29U G48A G50C G83C A120U G133C	≤ -4.2
A29U G48C A52C G58C U90G G141U A147C	≤ -4.2

Variant	polymerase ribozyme fitness (log ratio)
A29U G48U C114U A150G	≤ -4.2
A29U G50U A122C A142U	≤ -4.2
A29U G50U C116U A147U	-4.04
A29U G58C G84A C105U A113C	≤ -4.2
A29U G59A G83C C125U	≤ -4.2
A29U G59C C76U C85G A113G A138G	≤ -4.2
A29U G59C G88U C95G	≤ -4.2
A29U G65A C87A A91C U109G	≤ -4.2
A29U G65A U104A C132G G133A	≤ -4.2
A29U G68A	≤ -4.2
A29U G71U C72U A89G C93A C118A U145A	≤ -4.2
A29U G81C C93U	≤ -4.2
A29U G84A C96G U139G	≤ -4.2
A29U G84A G92C C116U U139A A142C	≤ -4.2
A29U G86U A147C	≤ -4.2
A29U G88C U111G U145C U148C	≤ -4.2
A29U G92A	≤ -4.2
A29U G92A A142C	≤ -4.2
A29U U31G A47C U61A G81A C95U G100U	≤ -4.2
A29U U31G C36U C69G G84A	≤ -4.2
A29U U31G C38A A40C A60G C85U A115U	≤ -4.2

Variant	polymerase ribozyme fitness (log ratio)
A29U U44G G141C	≤ -4.2
A29U U45A G46A G133U A142G A150G	≤ -4.2
A29U U45G C54G A91U C129G U148G	≤ -4.2
A29U U45G G86C U148A	≤ -4.2
A29U U53A C75U U78C C93U C105A U130G	≤ -4.2
A29U U53C U78C C103A C114G G126A	≤ -4.2
A29U U53G G81A G88C	≤ -4.2
A29U U55A G58U G74U U82A A98C	≤ -4.2
A29U U55G U78A G92C C118U U145A	≤ -4.2
A29U U56A A89G C96A U101G A142U	≤ -4.2
A29U U56A C63U U102C U127A G141C U151G	≤ -4.2
A29U U56A C85U	≤ -4.2
A29U U56A C93U A147U	≤ -4.2
A29U U56G G59C A97C	≤ -4.2
A29U U61A G67U G68A G83U	≤ -4.2
A29U U77A C96U G141C U145C	≤ -4.2
A29U U78A U82C C85U G143C	≤ -4.2
A29U U102A	≤ -4.2
A29U U111C C114G G140U	≤ -4.2
A29U U134A	≤ -4.2
A30C A39G G68U U78G C95U A115C G143C	≤ -4.2

Variant	polymerase ribozyme fitness (log ratio)
A30C A39U G59A U82G C87U G117U G140A G143U	≤ -4.2
A30C A40C U45G C76G C87U C116A C125A U148G	≤ -4.2
A30C A41G C76U G83A A89U G124A C131U C132G G143A U144A C149A	≤ -4.2
A30C A41G U44C G70U U78C C95G A119C	≤ -4.2
A30C A73G U90G G124U G141C	≤ -4.2
A30C C35U C54U C85U A121U	≤ -4.2
A30C C35U G86A U90G	≤ -4.2
A30C C36A C79G C85G C103G G124A U135G	≤ -4.2
A30C C38A C54U A60G G84U G141A G143A	≤ -4.2
A30C C38A G50U U56A U109C U127A	≤ -4.2
A30C C43A C54G G94A A147C	≤ -4.2
A30C C57G C63U G65U C96U A97U	≤ -4.2
A30C C72G G86U A106G U144C C149G	≤ -4.2
A30C C79A	≤ -4.2
A30C C79U G88A A110U	≤ -4.2
A30C C85U A115U U145C	≤ -4.2
A30C C93U C108A G128C	≤ -4.2
A30C G42U C54U C63G G68A C93U A121G U145A	≤ -4.2
A30C G46A	≤ -4.2
A30C G46C C95A U104C C114U A142C	≤ -4.2
